This experiment addresses T1, Cj1181c, translation elongation factor EF-Ts (Tsf) (Campylobacter jejuni NCTC 11168, UniProt Q9PNB4 1-357).
T1 sequence: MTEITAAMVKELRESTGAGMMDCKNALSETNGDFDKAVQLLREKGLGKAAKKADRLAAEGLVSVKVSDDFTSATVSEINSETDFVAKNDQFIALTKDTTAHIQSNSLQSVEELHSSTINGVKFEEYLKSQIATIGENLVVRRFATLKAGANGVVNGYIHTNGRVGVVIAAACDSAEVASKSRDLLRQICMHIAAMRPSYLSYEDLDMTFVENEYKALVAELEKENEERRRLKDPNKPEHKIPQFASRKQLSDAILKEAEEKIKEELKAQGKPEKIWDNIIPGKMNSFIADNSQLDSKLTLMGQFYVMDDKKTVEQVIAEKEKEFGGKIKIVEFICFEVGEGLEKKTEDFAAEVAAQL
In words: Western blot of 2D gel probed with SBA-alkaline phosphatase conjugate. (In general: Immunoblotting shows a protein as a band on a membrane.)

B1: soybean agglutinin (SBA)-alkaline phosphatase conjugate (other)
chain: AETVSFSWNKFVPKQPNMILQGDAIVTSSGKLQLNKVDENGTPKPSSLGRALYSTPIHIWDKETGSVASFAASFNFTFYAPDTKRLADGLAFFLAPIDTKPQTHAGYLGLFNENESGDQVVAVEFDTFRNSWDPPNPHIGINVNSIRSIKTTSWDLANNKVAKVLITYDASTSLLVASLVYPSQRTSNILSDVVDLKTSLPEWVRIGFSAATGLDIPGESHDVLSWSFASNLPHASSNIDPLDLTSFVLHEAI
modifications: conjugated to alkaline phosphatase (EY Laboratories)
notes: Lectin; Alkaline phosphatase part not described; also called GalNAc-specific lectin; SBA lectin
With B1, the binding result was “no binding (tested: 10 µg/mL)”.
